From PubChem BioAssay AID504466 (National Center for Advancing Translational Sciences (NCATS), 2011)
Hit rate of the full screen: of about 330,000 compounds, about 4,200 (1.3%) were called active. Inconclusive results, whose numbers are uncertain, are shown with a selection of clear calls. The call rests on the fitted dose curve; in most records, active means well fitted activation curve with a large enough effect; inconclusive means small, poorly fitted or top-dose-only effect; inactive means no such curve, though single readings can be large or run the other way. Potencies of inconclusive entries are doubtful fits and often do not repeat.
Potency means the concentration at half of the fitted maximal effect; tags describe the fitted curve by direction and shape.

Assay: qHTS screen for small molecules that induce genotoxicity in human embryonic kidney (HEK293T) cells expressing luciferase-tagged ELG1; further: nearly all actives have a fitted effect of over 60% in size; on activity change, positive = activation: % of control where 0% means no effect
Conditions: HEK293T ELG1-luciferase reporter, luminescence, 16 h; series mostly up to 46 µM; activity change, positive = activation: at the top concentration
Method in brief: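 HEK293T cells expressing luciferase-tagged ELG1 were treated with compound or DMSO for 16 hr at 37°C. Luciferase activity was then read after 30 min with ONE-Glo at room temperature; rising signal flags genetic stress.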
In the case of COc1ccc(-c2cc(=Nc3cccc(C(=O)O)c3)c3cc(C)ccc3o2)cc1, the Potency is reported as active: 5.8 µM. With C=CCc1ccc(OCCn2nnc3ccccc32)c(OC)c1 the Potency was active: 16.4 µM. For Cc1cc(C)n(CCOC(=O)C2C(C=C(Cl)Cl)C2(C)C)n1 (stereo unspecified), the Potency was inconclusive: 25.9 µM [activator, partial curve, poor fit]. With CCN1C(=O)C(=C/C=C/c2ccco2)C(=O)N(CC)C1=S the “activity change, positive = activation” value was inactive: 15.9%. For Cn1c(=O)cc(SCC(=O)N2CCC3(CC2)OCCO3)c2ccccc21, the Potency was inconclusive: 20.6 µM [activator, partial curve, poor fit]. For COc1ccc(N=Cc2c(O)n(Cc3ccccc3)c(=S)[nH]c2=O)c(OC)c1, the Potency was inconclusive: 20.6 µM [activator, partial curve]. With CCN1C(=O)C(=C2C=C(C)OC(C)=C2)C(=O)N(CC)C1=S the “activity change, positive = activation” value was inactive: 3.73%. In the case of O=C(N/N=C/c1c(O)n(-c2ccccc2)c(=S)[nH]c1=O)c1ccccc1, the “activity change, positive = activation” value is reported as inactive: 5.87%. In the case of CN(C)C(=O)Oc1ccc(OCc2nc3ccccc3[nH]2)cc1, the Potency is reported as inconclusive: 1.46 µM [activator, full curve, poor fit]. For O=C(O)CNC(=O)C(CS)Cc1ccccc1 (stereo unspecified), the Potency was inconclusive: 11.6 µM [activator, partial curve]. In the case of O=c1[nH]c(=S)[nH]c(O)c1N=Nc1ccc(OC(F)F)cc1, the Potency is reported as inconclusive: 5.01 µM [activator, partial curve, poor fit]. For C/C(=N\OC(=O)NC(C)C)c1sc(-c2ccc(Cl)cc2)nc1C, the Potency was inconclusive: 9.2 µM [activator, partial curve, poor fit]. With CCCCCn1c(=O)c(C(=O)NCCc2ccccc2)c(O)c2ccccc21 the “activity change, positive = activation” value was inactive: -12.4%. With C=CCSc1nnc(NC(=O)c2ccc(Cl)nc2)s1 the Potency was inconclusive: 17.8 µM [activator, single point]. In the case of Cc1cc(C(=O)Nc2ccc3c(c2)OCCO3)nn1C(C)(C)C, the Potency is reported as inconclusive: 7.3 µM [activator, partial curve]. For O=C(c1ccco1)c1cn(Cc2ccccc2)c2ccccc12, the Potency was inconclusive: 18.4 µM [activator, partial curve, poor fit]. For O=C(CSc1nnc(NC(=O)c2ccccc2F)s1)NCc1ccc(F)cc1, the Potency was inconclusive: 16.4 µM [activator, partial curve]. In the case of CCCCOC(=O)C1=C(N)OC2=C(C(=O)CC(C)(C)C2)[C@]12C(=O)N(C)c1ccccc12, the Potency is reported as inconclusive: 13 µM [activator, partial curve]. With OC(c1ccccc1)(c1ccccc1)C1CCCN1 (stereo unspecified) the Potency was inconclusive: 11.6 µM [activator, partial curve]. In the case of COc1ccc(-c2cc(=NCCC(=O)O)c3cc(C)ccc3o2)cc1, the Potency is reported as inconclusive: 29.1 µM [activator, single point]. For Cc1ccc(-c2nc(NC(=O)c3ccc(S(=O)(=O)N(CCC#N)CCC#N)cc3)sc2-c2ccccc2)cc1, the Potency was inconclusive: 18.4 µM [activator, partial curve, poor fit]. In the case of O=C1NC(=S)N(c2ccc(F)cc2)C(=O)/C1=C\c1ccoc1, the “activity change, positive = activation” value is reported as inactive: -0.416%. With Nc1ccccc1N=Cc1c(O)n(CCC2=CCCCC2)c(=O)[nH]c1=O the Potency was inconclusive: 29.1 µM [activator, single point]. For Cc1nn(CC(C)C)c(Cl)c1C(=O)NC1CCC(C)CC1 (stereo unspecified), the Potency was active: 9.2 µM. With C=CCn1c(O)c(C(C)=NC(C)c2ccccc2)c(=O)[nH]c1=O (stereo unspecified) the Potency was inconclusive: 18.3 µM [activator, partial curve, poor fit]. With CN1CCN(c2ccccc2NC(=O)c2ccc(-c3ccc(Cl)c(Cl)c3)o2)CC1 the Potency was inconclusive: 23.1 µM [activator, partial curve, poor fit]. With O=C(Oc1c(Cl)cc(Cl)c2ccccc12)N1CCCCC1 the Potency was inconclusive: 32.6 µM [activator, partial curve, poor fit]. In the case of CN[C@H]1C[C@H]2O[C@@](C)([C@H]1OC)n1c3ccccc3c3c4c(c5c6ccccc6n2c5c31)C(=O)NC4, the “activity change, positive = activation” value is reported as inactive: -15.6%. In the case of CC[N+](C)(CC)CCC[n+]1c(-c2ccccc2)c2cc(N)ccc2c2ccc(N)cc21, the “activity change, positive = activation” value is reported as inactive: -41.2%. For CCCC(C)C1(CC)C(=O)NC(=Nc2ccccc2OC)NC1=O (stereo unspecified), the Potency was inconclusive: 20.6 µM [activator, partial curve, poor fit]. In the case of COc1cc(C2C(C#N)=C(N)Oc3cc(O)ccc32)cc(OC)c1OC (stereo unspecified), the Potency is reported as inconclusive: 18.4 µM [activator, single point]. For O=C(c1cc(-c2ccccc2)on1)N1CCC2(CC1)OCCO2, the Potency was inconclusive: 11.6 µM [activator, partial curve]. With CC(=O)C1CCC2C3CCC4CC(O)CCC4(C)C3CCC12C (stereo unspecified) the Potency was inconclusive: 16.4 µM [activator, partial curve, poor fit]. In the case of CN(C(=O)Oc1ccc(C(C)(C)C)cc1)c1ccccc1, the Potency is reported as inconclusive: 23.1 µM [activator, partial curve, poor fit]. For CN1CCN(C(=O)COc2ccc(S(=O)(=O)NC3CCCCC3)cc2Cl)CC1, the Potency was inconclusive: 4.61 µM [activator, full curve, poor fit]. For Cc1ccc(/C=C/C(=O)C2C(=O)c3ccccc3C2=O)cc1, the Potency was inconclusive: 2.06 µM [activator, full curve, poor fit]. With NC(=Nc1ccccc1)Nc1ccccc1 the Potency was inconclusive: 23.1 µM [activator, partial curve, poor fit]. In the case of C=CCN1C(=O)/C(=C/c2ccc3c(c2)CCCN3CCC)C(=O)NC1=S, the Potency is reported as inconclusive: 32.6 µM [activator, partial curve, poor fit]. With CCN(CC)C(=O)Oc1ccc(OC(=O)N(CC)CC)cc1 the Potency was inconclusive: 29.1 µM [activator, partial curve, poor fit]. With CCn1c(O)c(/C(C)=N/N2CCCCC2c2cccnc2)c(=O)[nH]c1=S (stereo unspecified) the Potency was inconclusive: 18.4 µM [activator, partial curve, poor fit]. In the case of Cn1cnc2cc(NC(=O)c3ccc(Cl)cc3)ccc21, the Potency is reported as inconclusive: 9.2 µM [activator, partial curve]. For O=C(Nc1ccc(Cl)cc1)OC1CN2CCC1CC2 (stereo unspecified), the Potency was inconclusive: 13 µM [activator, partial curve, poor fit]. With COc1ccc2[nH]c3c(c2c1)CCNC3 the Potency was inconclusive: 20.6 µM [activator, single point]. In the case of CCc1cc2c(=O)n(C(C)C(=O)OC3CCCCC3)cnc2s1 (stereo unspecified), the Potency is reported as active: 9.2 µM. With CCOC(=O)c1c(C)n(Cc2ccc3c(c2)OCO3)c2ccc(O)cc12 the Potency was inconclusive: 8.91 µM [activator, partial curve, poor fit]. For Cc1ccsc1/C=C1\C(=O)NC(=S)N(C)C1=O, the Potency was inconclusive: 23.1 µM [activator, single point]. For CN1/C(=C\C=C2C(=O)NC(=O)NC2=O)C(C)(C)c2ccccc21, the Potency was inconclusive: 13 µM [activator, partial curve, poor fit]. With Cc1ccc(/C=C2\C(=O)NC(=O)N(Cc3ccccc3Cl)C2=O)o1 the Potency was inconclusive: 18.3 µM [activator, single point]. With Cc1ccc(N)c(N)c1 the Potency was inconclusive: 2.31 µM [activator, full curve]. In the case of Cc1cc(/C=C2\C(=O)NC(=S)N(C)C2=O)c(C)n1C1CCCCC1, the Potency is reported as inconclusive: 23.1 µM [activator, single point]. For COc1cc2c(c(OC)c1OC)-c1ccc(O)cc1[C@@H](NC(C)=O)CC2, the Potency was inconclusive: 2.59 µM [activator, partial curve]. For CCCCCn1c(=O)c(C(=O)NCc2ccc(Cl)cc2)c(O)c2ccccc21, the “activity change, positive = activation” value was inactive: -9.93%. For O=c1[nH]c(=O)n(Cc2ccccc2Cl)c(O)c1/C=C1/C=CC=N1, the Potency was inconclusive: 20.6 µM [activator, partial curve, poor fit]. With CN(C)C(=O)On1c(-c2ccccc2)nc2ccc(Cl)cc21 the Potency was inconclusive: 7.31 µM [activator, partial curve, poor fit]. For CCC(Oc1cc(Cl)ccc1Cl)C(=O)N1CCC2(CC1)OCCO2 (stereo unspecified), the Potency was inconclusive: 4.11 µM [activator, single point]. For CCOc1ccc(NC(=O)c2ccc(NC(=O)COC(=O)Cc3ccccc3)cc2)cc1, the Potency was inconclusive: 20.6 µM [activator, single point]. For COc1ccccc1N=Cc1c(O)n(C)c(=O)n(C)c1=O, the “activity change, positive = activation” value was inactive: 16.9%. With CCCNc1oc(-c2cccc3ccccc23)nc1C#N the Potency was inconclusive: 20.6 µM [activator, partial curve]. With O=C(C[N+]12CCC(CC1)C(CO)C2)c1ccc([N+](=O)[O-])cc1 (stereo unspecified) the “activity change, positive = activation” value was inactive: -8.46%. With CC(=O)c1c(C)n(Cc2ccccc2)c2ccc(O)cc12 the “activity change, positive = activation” value was inactive: -10.1%. With O=C(OCC(=O)c1ccc([N+](=O)[O-])cc1)/C(=C/c1ccc(Cl)cc1)NC(=O)c1ccccc1 the “activity change, positive = activation” value was inactive: -2.08%. In the case of CC(Cc1ccccc1)NC(=O)Cc1ccc(N(C)C)cc1 (stereo unspecified), the “activity change, positive = activation” value is reported as inactive: 2.35%. For COc1ccc(CNC(=O)c2ccc(C(C)C)cc2)cc1, the Potency was inconclusive: 18.3 µM [activator, partial curve]. In the case of C=CCN1C(=O)/C(=C/c2ccc(Br)s2)C(=O)NC1=S, the Potency is reported as inconclusive: 29.1 µM [activator, single point]. With O=C(Oc1ccc2ccccc2c1Cl)N1CCCC1 the Potency was active: 2.06 µM. With CN1C(=O)C(=Cc2ccccc2OCc2ccc(Cl)cc2)C(=O)N(C)C1=O the Potency was inconclusive: 20.6 µM [activator, partial curve, poor fit].
